In article PMC9911399, “Two distinct binding modes provide the RNA-binding protein RbFox with extraordinary sequence specificity”:
Numbering of substitutions follows the chain as printed; changes in the protein carry UniProt numbers. Some of the results follow.

T1: RBFOX1 RRM RbFoxmut (Fox-RRM*) (Homo sapiens, UniProt Q9NWB1 109-208, R118D;E147R;N151S;E152T)
T1 sequence: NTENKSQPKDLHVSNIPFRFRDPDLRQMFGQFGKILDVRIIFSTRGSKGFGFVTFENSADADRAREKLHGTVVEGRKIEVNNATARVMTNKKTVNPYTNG

B1: GACGUAA (DNA:RNA)
RNA: GGGAGACCGGAAUUCAGAUUGUCCGACGUAAUUAAAUCCCGUCGUAGCCACCA
DNA 1: CAATCTGAATTCCGGTCTCCC
DNA 2: TGGTGGCTACGACGGGATT
B2: CACUAGG (DNA:RNA)
RNA: B1 RNA with G25C, G28U, U29A, A30G, A31G
DNA 1: CAATCTGAATTCCGGTCTCCC
DNA 2: TGGTGGCTACGACGGGATT
B3: CGGUUUC (DNA:RNA)
RNA: B1 RNA with G25C, A26G, C27G, G28U, A30U, A31C
DNA 1: CAATCTGAATTCCGGTCTCCC
DNA 2: TGGTGGCTACGACGGGATT
B4: AUAAUGU (DNA:RNA)
RNA: B1 RNA with G25A, A26U, C27A, G28A, A30G, A31U
DNA 1: CAATCTGAATTCCGGTCTCCC
DNA 2: TGGTGGCTACGACGGGATT
B5: UGGUAAA (DNA:RNA)
RNA: B1 RNA with G25U, A26G, C27G, G28U, U29A
DNA 1: CAATCTGAATTCCGGTCTCCC
DNA 2: TGGTGGCTACGACGGGATT
B6: AGAAAGC (DNA:RNA)
RNA: GGGAGACCGGAAUUCAGAUUGUCCAGAAAGCUUAAAUCCCGUCGUAGCCACCA
DNA 1: CAATCTGAATTCCGGTCTCCC
DNA 2: TGGTGGCTACGACGGGATT
B7: CACCGUU (DNA:RNA)
RNA: B1 RNA with G25C, G28C, U29G, A30U, A31U
DNA 1: CAATCTGAATTCCGGTCTCCC
DNA 2: TGGTGGCTACGACGGGATT
B8: CUCUGGC (DNA:RNA)
RNA: B6 RNA with A25C, G26U, A27C, A28U, A29G
DNA 1: CAATCTGAATTCCGGTCTCCC
DNA 2: TGGTGGCTACGACGGGATT
B9: GGAUGUA (DNA:RNA)
RNA: B6 RNA with A25G, A28U, A29G, G30U, C31A
DNA 1: CAATCTGAATTCCGGTCTCCC
DNA 2: TGGTGGCTACGACGGGATT
B10: AGGCAAC (DNA:RNA)
RNA: B6 RNA with A27G, A28C, G30A
DNA 1: CAATCTGAATTCCGGTCTCCC
DNA 2: TGGTGGCTACGACGGGATT
B11: UAACGUC (DNA:RNA)
RNA: B6 RNA with A25U, G26A, A28C, A29G, G30U
DNA 1: CAATCTGAATTCCGGTCTCCC
DNA 2: TGGTGGCTACGACGGGATT
B12: CGAUGUC (DNA:RNA)
RNA: B6 RNA with A25C, A28U, A29G, G30U
DNA 1: CAATCTGAATTCCGGTCTCCC
DNA 2: TGGTGGCTACGACGGGATT
B13: ACGCUUC (DNA:RNA)
RNA: B6 RNA with G26C, A27G, A28C, A29U, G30U
DNA 1: CAATCTGAATTCCGGTCTCCC
DNA 2: TGGTGGCTACGACGGGATT
B14: CAUGGCA (DNA:RNA)
RNA: B1 RNA with G25C, C27U, U29G, A30C
DNA 1: CAATCTGAATTCCGGTCTCCC
DNA 2: TGGTGGCTACGACGGGATT
B15: AACCUCG (DNA:RNA)
RNA: B1 RNA with G25A, G28C, A30C, A31G
DNA 1: CAATCTGAATTCCGGTCTCCC
DNA 2: TGGTGGCTACGACGGGATT
B16: UGUUACG (DNA:RNA)
RNA: B6 RNA with A25U, A27U, A28U, G30C, C31G
DNA 1: CAATCTGAATTCCGGTCTCCC
DNA 2: TGGTGGCTACGACGGGATT
B17: ACUACCC (DNA:RNA)
RNA: B6 RNA with G26C, A27U, A29C, G30C
DNA 1: CAATCTGAATTCCGGTCTCCC
DNA 2: TGGTGGCTACGACGGGATT
B18: UGUAACC (DNA:RNA)
RNA: B6 RNA with A25U, A27U, G30C
DNA 1: CAATCTGAATTCCGGTCTCCC
DNA 2: TGGTGGCTACGACGGGATT
B19: CCCGGAC (DNA:RNA)
RNA: B1 RNA with G25C, A26C, U29G, A31C
DNA 1: CAATCTGAATTCCGGTCTCCC
DNA 2: TGGTGGCTACGACGGGATT
B20: GUGAGAA (DNA:RNA)
RNA: B1 RNA with A26U, C27G, G28A, U29G
DNA 1: CAATCTGAATTCCGGTCTCCC
DNA 2: TGGTGGCTACGACGGGATT
B21: AUCCCAA (DNA:RNA)
RNA: B1 RNA with G25A, A26U, G28C, U29C
DNA 1: CAATCTGAATTCCGGTCTCCC
DNA 2: TGGTGGCTACGACGGGATT
B22: UGUACAA (DNA:RNA)
RNA: B6 RNA with A25U, A27U, A29C, G30A, C31A
DNA 1: CAATCTGAATTCCGGTCTCCC
DNA 2: TGGTGGCTACGACGGGATT
B23: GCUAGUA (DNA:RNA)
RNA: B1 RNA with A26C, C27U, G28A, U29G, A30U
DNA 1: CAATCTGAATTCCGGTCTCCC
DNA 2: TGGTGGCTACGACGGGATT
B24: AUGGAGG (DNA:RNA)
RNA: B6 RNA with G26U, A27G, A28G, C31G
DNA 1: CAATCTGAATTCCGGTCTCCC
DNA 2: TGGTGGCTACGACGGGATT
B25: GGCCCCA (DNA:RNA)
RNA: B1 RNA with A26G, G28C, U29C, A30C
DNA 1: CAATCTGAATTCCGGTCTCCC
DNA 2: TGGTGGCTACGACGGGATT
B26: UCAUAUA (DNA:RNA)
RNA: B6 RNA with A25U, G26C, A28U, G30U, C31A
DNA 1: CAATCTGAATTCCGGTCTCCC
DNA 2: TGGTGGCTACGACGGGATT
B27: CAGCCCA (DNA:RNA)
RNA: B1 RNA with G25C, C27G, G28C, U29C, A30C
DNA 1: CAATCTGAATTCCGGTCTCCC
DNA 2: TGGTGGCTACGACGGGATT
B28: CCUGGGU (DNA:RNA)
RNA: B6 RNA with A25C, G26C, A27U, A28G, A29G, C31U
DNA 1: CAATCTGAATTCCGGTCTCCC
DNA 2: TGGTGGCTACGACGGGATT
B29: UUGGAGC (DNA:RNA)
RNA: B6 RNA with A25U, G26U, A27G, A28G
DNA 1: CAATCTGAATTCCGGTCTCCC
DNA 2: TGGTGGCTACGACGGGATT
B30: AUUCCCU (DNA:RNA)
RNA: B6 RNA with G26U, A27U, A28C, A29C, G30C, C31U
DNA 1: CAATCTGAATTCCGGTCTCCC
DNA 2: TGGTGGCTACGACGGGATT
B31: AAUUUCC (DNA:RNA)
RNA: B6 RNA with G26A, A27U, A28U, A29U, G30C
DNA 1: CAATCTGAATTCCGGTCTCCC
DNA 2: TGGTGGCTACGACGGGATT

Each binder was assayed against T1, RBFOX1 RRM RbFoxmut (Fox-RRM*) (assay: EMSA; HiTS-Eq, 1 nM pool, 10 min; buffer printed only for the single-RNA assays: 10 mM Tris pH 7.5, 150 mM NaCl, 3.4 mM EDTA, 0.001% NP-40, 30 C). Conditions: tags: His6 N-terminal (pET28a); label: 5' 32P.
Method in brief: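 Purified wild-type or mutant RbFox RRM at increasing concentrations was equilibrated with 1 nM of 5′-radiolabelled RNA carrying 7 randomized nucleotides for 10 min in 50 µL. Unbound RNA was separated by 8% native PAGE and sequenced. Relative association constants came from read-count changes of each RNA species compared with the control reaction, normalised to the cognate motif.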

| Binder | binding signal |
| --- | --- |
| B1 | 0.125 KA relative to UGCAUGU |
| B2 | 0.0811 KA relative to UGCAUGU |
| B3 | 0.15 KA relative to UGCAUGU |
| B4 | 0.135 KA relative to UGCAUGU |
| B5 | 0.0843 KA relative to UGCAUGU |
| B6 | 0.108 KA relative to UGCAUGU |
| B7 | 0.0894 KA relative to UGCAUGU |
| B8 | 0.115 KA relative to UGCAUGU |
| B9 | 0.285 KA relative to UGCAUGU |
| B10 | 0.0666 KA relative to UGCAUGU |
| B11 | 0.0579 KA relative to UGCAUGU |
| B12 | 0.178 KA relative to UGCAUGU |
| B13 | 0.0771 KA relative to UGCAUGU |
| B14 | 0.141 KA relative to UGCAUGU |
| B15 | 0.0977 KA relative to UGCAUGU |
| B16 | 0.334 KA relative to UGCAUGU |

| Binder | binding signal |
| --- | --- |
| B17 | 0.0857 KA relative to UGCAUGU |
| B18 | 0.077 KA relative to UGCAUGU |
| B19 | 0.0829 KA relative to UGCAUGU |
| B20 | 0.123 KA relative to UGCAUGU |
| B21 | 0.124 KA relative to UGCAUGU |
| B22 | 0.0527 KA relative to UGCAUGU |
| B23 | 0.126 KA relative to UGCAUGU |
| B24 | 0.119 KA relative to UGCAUGU |
| B25 | 0.091 KA relative to UGCAUGU |
| B26 | 0.154 KA relative to UGCAUGU |
| B27 | 0.0935 KA relative to UGCAUGU |
| B28 | 0.0999 KA relative to UGCAUGU |
| B29 | 0.114 KA relative to UGCAUGU |
| B30 | 0.0756 KA relative to UGCAUGU |
| B31 | 0.0644 KA relative to UGCAUGU |
